Data: PubChem BioAssay AID603 (National Center for Advancing Translational Sciences (NCATS), 2007)
“And” between values parts separate entries of the source, which are not always exact repeats. Equal values may be shown once. Out of some 71,000 compounds screened, about 180 (0.25%) were called active. The inconclusive results got no clear call from the source; some entries with a clear call stand among them for comparison. Calls follow the shape of the dose curve; as a rule, active = well fitted curve in the direction sought with a large enough effect; inconclusive = small, poorly fitted or top-dose-only effect; inactive = flat fitted curve, though single readings scatter. Potencies beside an inconclusive call are fits to weak or partial responses and may not hold up.

What follows are compounds tested on DNA polymerase III holoenzyme (E. coli) (assay: qHTS Assay for Inhibitors of DNA Polymerase III Holoenzyme System). Details: reconstituted DNA polymerase III holoenzyme replication, biochemical; series mostly up to 57.1 µM.
Procedure, shortened: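 Reconstituted *E. coli* holoenzyme (0.35 nM Pol III, 1 nM beta, 154 nM SSB, 2 nM primase) was preincubated with compound for 15 min at RT. Synthesis on 1.4 nM ssM13Gori ran 35 min, then was stopped with PicoGreen/EDTA and read as dsDNA fluorescence.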
% is scaled to controls: 0 for no effect and ±100 for the full control effect; potency is read from the fitted curve at half-maximal effect.

| Structure (SMILES) | Potency | activity change, negative = inhibition |
| --- | --- | --- |
| c1cc2c(cc1-c1cnc3n1CCC3)OCCO2 | inconclusive: 6.31 µM | – |
| CCOC(=O)CSc1nc2ccccc2n1CC(=O)NC(C)(C)C | inconclusive: 6.31 µM | – |
| Cc1nc(NC2=NCN(CCN3CCOCC3)CN2)nc2c(C)cccc12 | inconclusive: 6.31 µM | – |
| Cc1cccc2cc3c(N)c(C(=O)N4CCOCC4)sc3nc12 | inactive | – |
| CCCC(=O)c1cc(O)c(O)cc1O | inconclusive: 0.501 µM | – |
| CC1CCCC(NC(=O)CSc2ncccc2C(=O)O)C1C (configuration not stated) | inconclusive: 6.31 µM | – |
| CC(C)CN1CC[C@@]2(CCCN(C(=O)c3cc(C(F)(F)F)cc(C(F)(F)F)c3)C2)C1 | inactive | – |
| CCOc1cc(N2CCOCC2)c(OCC)cc1NC1=NCCCCC1 | inconclusive: 6.31 µM | – |
| CCn1c(SCC#N)nc2c(c1=O)C1(CCCC1)Cc1ccccc1-2 | inactive | – |
| CC1CN(c2nn3c(=O)c4ccccc4nc3c3ccccc23)CC(C)O1 (configuration not stated) | inconclusive: 6.31 µM | – |
| COc1ccccc1NCCC(=O)OCC(=O)NCc1ccco1 | inactive | – |
| OC(COCC1COc2ccccc2O1)CN1CCc2ccccc2C1 (configuration not stated) | inconclusive: 6.31 µM | – |
| CS(=O)(=O)N1CCC2(CCCN(c3ncccn3)C2)CC1 | inactive | – |
| Clc1ccc(OCc2cn3cccnc3n2)c2ncccc12 | inconclusive: 5.01 µM | – |
| CN(C)c1ccc(C2C3=C(CCCC3=O)OC3=C2C(=O)CCC3)cc1 | inconclusive: 6.31 µM | – |
| Cc1cccc(N(C(=O)Cn2nnc3ccccc32)C(C(=O)NCc2ccco2)c2ccncc2)c1C (configuration not stated) | inconclusive: 6.31 µM | – |
| CC(=O)CC(C)C | inconclusive: 15.8 µM | – |
| Cc1cc(-c2ccc(N=Nc3ccc4c(S(=O)(=O)O)cc(S(=O)(=O)O)c(N)c4c3O)c(C)c2)ccc1N=Nc1ccc2c(S(=O)(=O)O)cc(S(=O)(=O)O)c(N)c2c1O | active: 7.94 µM | – |
| COc1ccc(NC(=O)C(CC(C)C)NC(=O)c2ccccc2C)cn1 (configuration not stated) | inactive | – |
| COc1ccc(-c2coc3ccc(O[C@@H]4O[C@@H](COC(C)=O)[C@@H](OC(C)=O)[C@@H](OC(C)=O)[C@H]4OC(C)=O)cc3c2=O)cc1 | inactive | – |
| N=C(N)c1ccc(N=Nc2c(O)ccc3c2[nH]c2ccccc23)cc1 | inconclusive: 3.98 µM | – |
| c1coc(-c2nc3ccccc3nc2-c2ccco2)c1 | active: 25.1 µM | – |

| Structure (SMILES) | Potency | activity change, negative = inhibition |
| --- | --- | --- |
| CN(C)C(=O)[C@]1(C)C[C@H]1[C@H](NC(=O)CNC(=O)[C@@H]1CCCN1C(=O)[C@]1(C)C[C@H]1[C@H](NC(=O)OCc1ccccc1)c1ccccc1)c1ccccc1 | inactive | – |
| O=c1cc(O)cc(/C=C\c2ccc(O)c(O)c2)o1 | active: 6.31 µM | – |
| CCN1CCCC1CNC(=O)c1cc2c(=O)n(C)c3ccccc3c2n1C (configuration not stated) | active: 25.1 µM | – |
| CCOC(=O)N1CCN(C(=O)Cn2ncc3ccccc32)CC1 | active: 25.1 µM | – |
| Cc1noc(C)c1-c1nc(NC2CC2)c2ccccc2n1 | inconclusive: 39.8 µM | – |
| CCCC(c1nnnn1Cc1ccco1)N1CCN(C2CCCC2)CC1 (configuration not stated) | inconclusive: 6.31 µM | – |
| Cc1ccc2c(CC(=O)Nc3ccc(N4CCN(C)CC4)cc3C)coc2c1 | inconclusive: 6.31 µM | – |
| CCOc1ccc(CN2CCC(C(=O)N3CCN(c4ccccc4F)CC3)CC2)cc1OC | inconclusive: 6.31 µM | – |
| Cc1ccc2c(CC(=O)Nc3nc(C)cs3)coc2c1 | inconclusive: 6.31 µM | – |
| CCOc1ccc2c(ccc(/C=C\c3cc(C)c4cccnc4c3O)[n+]2C)c1 | active: 3.16 µM | – |
| C=CC(C)(C)c1[nH]c2ccccc2c1C1=C(O)C(=O)C(c2c[nH]c3c(CC=C(C)C)cccc23)=C(O)C1=O | active: 1.26 µM | – |
| c1ccc2[nH]c(SCc3cscn3)nc2c1 | inactive | – |
| Cc1c(C(=O)OCC(=O)c2c(N)n(CC(C)C)c(=O)n(C)c2=O)oc2ccccc12 | inconclusive: 39.8 µM | – |
| COc1cccc(-c2nccc(NCc3cnc(C)cn3)n2)c1 | inactive | – |
| COCCn1nnnc1C(c1ccccc1)N1CCN(Cc2ccc3c(c2)OCO3)CC1 (configuration not stated) | inconclusive: 6.31 µM | – |
| CC(=O)N1CCN(c2ccc(NCc3ccc(C)cc3)cc2)CC1 | inactive | – |
| Cc1cc(C)c(S(=O)(=O)Nc2ccccc2C(F)(F)F)c(C)c1 | inactive | – |
| CC(C)(C)c1ccccc1NC(=O)c1cccnc1 | active: 31.6 µM | – |
| CC(=O)c1cccc(S(=O)(=O)N(CCCO)Cc2cc3ccc(C)cc3[nH]c2=O)c1 | inconclusive: 6.31 µM | – |
| COC(=O)c1[nH]c2cc(OC)c(OC)cc2c1NC(=O)CN1CCN(Cc2ccccc2)CC1 | inactive | – |
| COC(=O)C1(C)C=CC2(CCCCC2)N1C(=O)c1ccccc1 (configuration not stated) | inactive | – |
| O=C(N/N=C\c1ccccc1O)c1ccccc1O | inconclusive: 39.8 µM | – |

| Structure (SMILES) | Potency | activity change, negative = inhibition |
| --- | --- | --- |
| Cc1cc(NC(=O)CSc2nc3c(c(-c4cccnc4)c2C#N)CCC3)no1 | active: 3.16 µM | – |
| Cc1ccc(S(=O)(=O)Oc2ccc(N=Nc3ccc(-c4ccc(N=Nc5c(O)ccc6cc(S(=O)(=O)O)cc(S(=O)(=O)O)c56)c(C)c4)cc3C)cc2)cc1 | active: 31.6 µM | – |
| N#Cc1cc2c(nc1SCc1nc3ccccc3[nH]1)CCC2 | inactive | – |
| Cc1cccc(NC(=O)Nc2ccc(C#N)cc2)n1 | active: 25.1 µM | – |
| CC(C)N(C(=O)CSc1nnnn1C1CCCC1)C(C)C | inconclusive: 6.31 µM | – |
| CCCCn1c(=O)n(CC(=O)NCc2ccc(C)cc2)c(=O)c2c1nc(CO)n2CCC | inconclusive: 6.31 µM | – |
| COc1cccc2c1C(=O)c1c(O)c3c(c(O)c1C2=O)C[C@@](O)(C(C)=O)C[C@@H]3O[C@H]1C[C@H](N)[C@H](O)[C@H](C)O1 | active: 398 nM and active: 158 nM | – |
| Cc1cc(C)n(-c2nncc(-c3ccccc3)n2)n1 | inactive | – |
| O=C(CSc1nncs1)NC(=O)NCc1ccccc1 | inconclusive: 6.31 µM | – |
| COc1ccccc1NC(=O)c1ccc(-c2ccccc2F)o1 | inactive | – |
| COc1ccc(-n2cnnc2SCC(=O)c2ccc(S(=O)(=O)N3CCOCC3)cc2)cc1 | inconclusive: 6.31 µM | – |
| C=CCn1c(C)cc(C(=O)CSc2nnc(-c3cccc(S(=O)(=O)N(CC)CC)c3)o2)c1C | inconclusive: 6.31 µM | – |
| CN(C)CCCOC(=O)c1cc2ccccc2o1 | inconclusive: 6.31 µM | – |
| Oc1cc(O)c2c(c1)O[C@H](c1ccc(O)c(O)c1)[C@@H](O)[C@@H]2c1c(O)cc(O)c2c1O[C@@H](c1ccc(O)c(O)c1)[C@H](O)C2 | active: 0.631 µM | – |
| CCN(CC)c1ccc(C(=S)N2CCN(c3ccccc3)CC2)cc1 | inconclusive: 6.31 µM | – |
| O=c1nc2s/c(=C\c3ccco3)c(=O)n2nc1Cc1ccc(F)cc1 | active: 15.8 µM | – |
| Cn1c(C(=O)NCCN2CCCCCC2)cc2c(=O)n(C)c3ccccc3c21 | inconclusive: 31.6 µM | – |
| O=C1CCCC2=C1C(c1ccco1)Nc1ccc3ccccc3c12 (configuration not stated) | active: 25.1 µM | – |
| Cc1noc(C)c1COc1ccc(C(=O)OCC(=O)c2ccc3c(c2)OCCO3)cc1 | inconclusive: 6.31 µM | – |
| COC(=O)c1ccccc1NC(=O)c1noc2c1CCC2 | inconclusive: 31.6 µM | – |
| CCc1c(O)c2c(c(O)c1C(C)=O)C(=O)c1c(cc(O)c(C(=O)O)c1C(=O)O)C2=O | inconclusive: 3.98 µM | – |
| CN(C)CCCNc1cc(O)c2c(c1O)C(=O)c1ccccc1C2=O | inconclusive: 3.98 µM | – |

| Structure (SMILES) | Potency | activity change, negative = inhibition |
| --- | --- | --- |
| O=C(O)c1cc(=O)[nH]c(=O)[nH]1 | inconclusive: 15.8 µM | – |
| COc1ccc(NS(=O)(=O)c2ccc(NC(=O)C3CCCO3)cc2)cc1 (configuration not stated) | inconclusive: 6.31 µM | – |
| CN=c1scc(C)n1/N=C/c1ccc(O)cc1 | inconclusive: 5.01 µM | – |
| COc1ccc(-n2c(=O)c(-c3cc(F)cc(F)c3)nc3cnc(N4CCNCC4)nc32)cc1 | inactive | – |
| COCCn1nnnc1CN(CCc1ccc(OC)c(OC)c1)Cc1cc2ccc(C)cc2[nH]c1=O | inconclusive: 31.6 µM | – |
| C=C[C@@]1(C)CC(=O)[C@@]2(O)[C@@]3(C)[C@@H](O)CCC(C)(C)[C@@H]3[C@H](OC(=O)CCN(C)C)[C@H](OC(C)=O)[C@@]2(C)O1 | inactive | – |
| CC(=O)NC(CC(C)C)C(=O)NC(=O)NCc1ccccc1 (configuration not stated) | – | inactive: -0.3% [at 11.4 µM] |
| O=C(CSc1nc2cc(Cl)ccc2o1)c1cccs1 | inconclusive: 6.31 µM | – |
| CC(C)CC1NC(=O)N(CC(=O)N2CCN(S(=O)(=O)c3ccc4ccccc4c3)CC2)C1=O (configuration not stated) | inconclusive: 6.31 µM | – |
| c1ccc(-c2cc(-c3nnc4sc(-c5ccccn5)nn34)[nH]n2)cc1 | inconclusive: 25.1 µM | – |
| CC(C)Oc1ccc(C2/C(=C(/O)c3ccc(F)cc3)C(=O)C(=O)N2CCCN(C)C)cc1 (configuration not stated) | inactive | – |
| CSc1nnc(-c2ccco2)c(-c2ccco2)n1 | inconclusive: 31.6 µM | – |
| COc1ccc2nc(/N=C\N(C)C)sc2c1 | inactive | – |
| CC(=O)N1CCN(S(=O)(=O)c2ccc(C)cc2)C1C(C)C (configuration not stated) | inactive | – |
| O=C(O)c1ccccc1-c1ccc(/C=c2\sc3nc4cc(Br)cnc4n3c2=O)o1 | inconclusive: 25.1 µM | – |
| COc1cc(NC(=O)c2csc3c2CCCC3)ncn1 | inactive | – |
| O=C(NCc1ccco1)c1cc(-c2ccccn2)nc2ccccc12 | inconclusive: 6.31 µM | – |
| CNc1nnc(-c2ccncc2)s1 | inconclusive: 6.31 µM | – |
| O=C1c2ccc(Oc3ccc4c(c3)C(=O)N(CCCCO)C4=O)cc2C(=O)N1CCCCO | inconclusive: 6.31 µM | – |
| O=C1C(c2[nH]c3ccccc3c2O)=Nc2ccccc21 | active: 3.98 µM | – |
| COc1cc(OC)cc(C(=O)Nc2cccc(N3CCCC3)c2)c1 | inactive | – |
